Source: the supplement of paper PMC4967469
By IC50 is meant the dose at which the fit gives 50% viability; fits outside the tested doses are given as limits. AUC sums up the same curve from the lowest dose to the 256-fold higher top dose; the more sensitive the line, the further below 1. For some assays here: Any top dose called inferred was calculated from the reported fits. For some assays here: Drugs with an entry number were screened twice under separate entries, and the two screens often disagree.

Columns and labels:
Test in all cases: Viability of human cancer cell lines after 72 h of drug (GDSC screen)
[1] = compound: CC(C)[C@H](C(=O)Nc1ccc(C(=O)NO)cc1)c1ccccc1 [AR-42]; conditions: top dose 5.12 µM; top dose inferred
Method: (§1)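 Human cancer cell lines in 384-well plates, medium with 10% serum, drug for 72 h over a 256-fold dose range (nine 2-fold or five 4-fold steps up to the top dose). Adherent lines were fixed and stained with the nucleic acid dye Syto60, suspension lines read with resazurin; signal relative to control wells, capped at 0 and 100%. One two-parameter sigmoid per drug and line, fitted in a mixed model over all curves with the slope shared within a line.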

[2] = compound: CS(=O)(=O)N1CCN(Cc2cc3nc(-c4cccc5[nH]ncc45)nc(N4CCOCC4)c3s2)CC1 [GDC0941]; conditions: top dose 4 µM; screen: GDSC drug entry 1527; top dose inferred
Method: as §1

[3] = compound: C[C@]12O[C@H](C[C@]1(O)CO)n1c3ccccc3c3c4c(c5c6ccccc6n2c5c31)CNC4=O [CEP-701]; conditions: top dose 2 µM; top dose inferred
Method: as §1

[4] = compound: Cc1ccc(Nc2nccc(N(C)c3ccc4c(C)n(C)nc4c3)n2)cc1S(N)(=O)=O [Pazopanib]; conditions: top dose 8 µM
Method: as §1

[5] = compound: Cn1cc(C2=C(c3ccc(Cl)cc3Cl)C(=O)NC2=O)c2ccccc21 [SB 216763]; conditions: top dose 10 µM; top dose inferred
Method: as §1

Cell Line	AUC [1]	IC50 [1] [µM]	AUC [2]	IC50 [2] [µM]	AUC [3]	IC50 [3] [µM]	AUC [4]	IC50 [4] [µM]	AUC [5]	IC50 [5] [µM]
DMS-273 (small cell lung carcinoma, adherent)	0.396	0.163	0.849	3.29	0.862	1.87	0.845	6.31	0.954	> 10
Daoy (medulloblastoma, adherent)	0.285	0.0843	0.812	1.9	0.766	0.674	0.84	–	0.957	> 10
Detroit562 (head and neck, adherent)	0.823	2.86	0.845	2.74	0.595	0.225	0.98	> 8	0.979	> 10
EBC-1 (lung squamous cell carcinoma, adherent)	0.711	1.37	0.675	0.822	0.852	1.87	0.932	> 8	0.979	> 10
ECC10 (stomach, suspension)	0.721	1.4	0.725	1.13	0.501	0.126	0.92	> 8	0.985	> 10
EFM-19 (breast, adherent)	0.557	0.494	0.641	0.752	0.539	0.168	0.744	3.69	0.978	> 10
EFM-192A (breast, adherent)	0.652	0.889	0.696	0.953	0.924	> 2	0.667	1.55	0.98	> 10
EFO-21 (ovary, adherent)	0.812	4.38	0.779	2.42	0.864	> 2	0.897	> 8	0.98	> 10
EFO-27 (ovary, adherent)	0.536	0.411	0.524	0.296	0.713	0.588	0.954	> 8	0.961	> 10
EGI-1 (biliary tract, adherent)	0.805	3.55	0.813	3.02	0.692	0.514	0.97	> 8	0.905	> 10
EN (endometrium, adherent)	0.621	0.757	0.907	> 4	0.831	1.76	0.925	> 8	0.984	> 10
EPLC-272H (lung squamous cell carcinoma, adherent)	0.456	0.238	0.643	0.658	0.532	–	0.906	> 8	0.981	> 10
ESS-1 (endometrium, adherent)	0.541	0.41	0.809	1.84	0.791	0.8	0.695	1.65	0.99	> 10
EW-7 (Ewing sarcoma, semi-adherent)	0.436	0.219	0.599	0.45	0.84	1.14	0.987	> 8	0.987	> 10
FTC-133 (thyroid, adherent)	0.805	2.9	0.917	> 4	0.546	0.169	0.939	> 8	0.976	> 10
FU97 (stomach, adherent)	0.745	1.65	0.674	0.779	0.464	0.0997	0.553	0.699	0.951	> 10
FU-OV-1 (ovary, adherent)	0.879	> 5.12	0.818	3.24	0.948	> 2	0.969	> 8	0.951	> 10
G-361 (melanoma, adherent)	0.432	0.21	0.83	2.36	0.604	0.238	0.764	2.79	0.988	> 10
G-401 (kidney, adherent)	0.558	0.468	0.643	0.648	0.672	0.397	0.623	1.13	0.979	> 10
G-402 (soft tissue, adherent)	0.889	> 5.12	0.594	0.494	0.505	0.13	0.484	0.444	0.83	9.42
G-MEL (melanoma, adherent)	0.57	0.496	0.93	> 4	0.402	0.0675	0.791	3.55	0.971	> 10
GI-ME-N (neuroblastoma, adherent)	0.434	0.198	0.736	1.53	0.539	0.166	0.812	6.37	0.976	> 10
GMS-10 (glioma, adherent)	0.973	> 5.12	0.682	0.806	0.667	0.364	0.971	> 8	0.985	> 10
H4 (glioma, adherent)	0.574	0.51	0.681	0.794	0.259	0.0257	0.746	–	0.935	> 10
H2373 (mesothelioma, adherent)	0.595	0.622	0.728	1.33	0.506	0.131	0.905	> 8	0.983	> 10
H2595 (mesothelioma, adherent)	0.614	0.746	0.863	> 4	0.972	> 2	0.962	> 8	0.973	> 10
